Out of some 310,000 compounds screened, about 14,000 (4.5%) showed an effect of 50% or more. The effect is printed as a negative number. The list shows a part of the results.
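Further: peak tail current of the secondary pulse compared with the same well before compound.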

In this assay the target is human ether-à-go-go-related gene (hERG) potassium channel (human, UniProt Q12809). Put plainly: primary screen, population patch clamp on CHO cells stably expressing hERG.
human ether-à-go-go-related gene (hERG) potassium channel, sequence (Q12809 whole entry, looked up): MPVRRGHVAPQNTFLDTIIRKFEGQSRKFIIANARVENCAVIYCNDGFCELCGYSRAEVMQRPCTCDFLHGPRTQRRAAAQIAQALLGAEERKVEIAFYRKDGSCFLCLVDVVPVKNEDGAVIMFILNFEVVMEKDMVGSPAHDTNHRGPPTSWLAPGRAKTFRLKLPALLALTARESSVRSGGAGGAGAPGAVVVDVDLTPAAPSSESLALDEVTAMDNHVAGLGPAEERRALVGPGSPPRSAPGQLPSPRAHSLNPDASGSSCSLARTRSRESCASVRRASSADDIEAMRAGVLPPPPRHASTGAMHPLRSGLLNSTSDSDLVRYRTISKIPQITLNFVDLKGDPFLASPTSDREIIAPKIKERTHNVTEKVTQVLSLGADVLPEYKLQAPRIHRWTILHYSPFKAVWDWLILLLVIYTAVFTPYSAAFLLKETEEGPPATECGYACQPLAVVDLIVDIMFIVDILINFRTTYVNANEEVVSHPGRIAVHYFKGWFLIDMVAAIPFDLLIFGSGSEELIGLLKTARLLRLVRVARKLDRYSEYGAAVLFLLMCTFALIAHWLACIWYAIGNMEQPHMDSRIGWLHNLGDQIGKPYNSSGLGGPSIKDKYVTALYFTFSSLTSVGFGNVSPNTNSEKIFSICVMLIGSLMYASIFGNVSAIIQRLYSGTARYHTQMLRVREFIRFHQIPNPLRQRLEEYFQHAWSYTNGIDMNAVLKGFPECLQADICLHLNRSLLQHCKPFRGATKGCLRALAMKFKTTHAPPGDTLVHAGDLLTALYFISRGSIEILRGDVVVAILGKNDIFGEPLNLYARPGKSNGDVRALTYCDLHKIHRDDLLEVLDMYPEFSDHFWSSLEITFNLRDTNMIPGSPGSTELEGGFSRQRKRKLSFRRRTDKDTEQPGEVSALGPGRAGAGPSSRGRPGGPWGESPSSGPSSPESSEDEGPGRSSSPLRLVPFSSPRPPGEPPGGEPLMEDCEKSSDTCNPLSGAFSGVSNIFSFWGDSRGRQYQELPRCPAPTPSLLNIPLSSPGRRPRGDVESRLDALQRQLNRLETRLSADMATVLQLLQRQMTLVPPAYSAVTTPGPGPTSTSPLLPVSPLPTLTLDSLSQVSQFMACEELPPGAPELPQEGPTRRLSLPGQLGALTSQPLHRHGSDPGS
`COC(=O)c1ccccc1S(=O)(=O)N1CCC(C(=O)OCC(=O)c2ccccc2OC)CC1`: the “hERG current change (%, negative = inhibition) at 10uM” value is listed as -16.8%.

For `NNC(=O)/C(=C\c1ccco1)NC(=O)c1ccco1`, the “hERG current change (%, negative = inhibition) at 10uM” value is reported as -2.75%.

On to `CC(C)c1cn(C2OC(COC(=O)c3ccccc3)C(OC(=O)c3ccccc3)C2OC(=O)c2ccccc2)c(=O)[nH]c1=O` (stereo not drawn), for which the “hERG current change (%, negative = inhibition) at 10uM” value was 16.7%.

As to `Clc1ccccc1-c1nc(-c2ccc(Br)o2)no1`, the “hERG current change (%, negative = inhibition) at 10uM” value is 17.4%.

On to `CCN1CCN(C(=O)COc2ccc(S(=O)(=O)N(C)Cc3ccccc3)cc2)CC1`, for which the “hERG current change (%, negative = inhibition) at 10uM” value is given as -45.7%.

Take `CCOc1ccc(C(=O)CSCC(=O)O)cc1`: the “hERG current change (%, negative = inhibition) at 10uM” value is on record as 16%.

Consider `CN1CCN(NC(=O)CN2C(=O)S/C(=C\c3c(Cl)cccc3Cl)C2=O)CC1`, for which the “hERG current change (%, negative = inhibition) at 10uM” value was -5.45%.

As for `O=C(Nc1ccc(CN2CCOCC2)cc1)c1cccc(-c2cc3ccccc3oc2=O)c1`, the “hERG current change (%, negative = inhibition) at 10uM” value is reported as -21.5%.

For the molecule `O=C(O)C(=O)O.O=S(=O)(c1ccccc1C(F)(F)F)N1CCN(CC(O)COc2ccccc2F)CC1` (stereo not drawn), the “hERG current change (%, negative = inhibition) at 10uM” value stood at 23%.

As to `Cc1ccccc1CN1CCCNC1=O`, the “hERG current change (%, negative = inhibition) at 10uM” value was found to be 11.5%.

With `NC1=NC2(CCCCC2)N=C(Nc2ccc(F)cc2F)N1`, the “hERG current change (%, negative = inhibition) at 10uM” value is given as 4.19%.

Regarding `COc1cc(/C=C2/C(=N)N3C=CSC3=NC2=O)ccc1OCCOc1ccc(NC(C)=O)cc1`, the “hERG current change (%, negative = inhibition) at 10uM” value turned out to be 15.1%.

On to `CC(C)Oc1ccccc1/C=N/Nc1ccccc1[N+](=O)[O-]`, for which the “hERG current change (%, negative = inhibition) at 10uM” value was 2.49%.

As to `Cc1nc2c3ccccc3nc(SCC(=O)c3ccc(Cl)cc3)n2n1`, the “hERG current change (%, negative = inhibition) at 10uM” value is reported as 2.48%.

Consider `c1ccc2[nH]c(NC3=NCCC3)nc2c1`, for which the “hERG current change (%, negative = inhibition) at 10uM” value was found to be 9.18%.

Consider `Cc1[nH]c2ccccc2c(=O)c1CN(C)Cc1ccccc1`, for which the “hERG current change (%, negative = inhibition) at 10uM” value is -22.5%.

Take `CCCOc1ccc(C(=O)Nc2ccc3c(c2)OCO3)cc1`: the “hERG current change (%, negative = inhibition) at 10uM” value stood at 16.1%.

For `COCCn1c(=O)[nH]c2cc(C(=O)Nc3cc(C)cc(C)c3)ccc2c1=O`, the “hERG current change (%, negative = inhibition) at 10uM” value was 26.3%.

Take `Cc1c(Cl)cccc1S(=O)(=O)Nc1ccnn1C`: the “hERG current change (%, negative = inhibition) at 10uM” value came out at 20.5%.

With `CC1CCc2c(sc3ncnc(NCCN4CCOCC4)c23)C1` (stereo not drawn), the “hERG current change (%, negative = inhibition) at 10uM” value is reported as -54.6%.

For the molecule `O=C(CCNC(=O)c1ccccc1Cl)Nc1ccc(Br)c(C(F)(F)F)c1`, the “hERG current change (%, negative = inhibition) at 10uM” value came out at 22.5%.

With `COc1ccc(C(=O)Nc2ccc(NC(C)=O)cc2)cc1S(=O)(=O)N(C)Cc1ccccc1`, the “hERG current change (%, negative = inhibition) at 10uM” value amounted to 10.3%.

As to `Cc1cc(C)n(C(=O)CNC(=O)c2ccc(C(C)(C)C)cc2)n1`, the “hERG current change (%, negative = inhibition) at 10uM” value was determined as 2.45%.

With `CSc1oc(-c2ccco2)nc1S(=O)(=O)c1ccc(Br)cc1`, the “hERG current change (%, negative = inhibition) at 10uM” value is -6.38%.

(Values after paper PMC4336329 (PLoS ONE, 2015).)
